Assay results reported in the supplement of paper PMC12217912.
This is one part of the list. The full chains were built here from the parent and the listed change. Inactive controls read about 0.05.

B1: TEV protease; numbered along this chain (parent)
chain: MGESLFKGPRDYNPISSSICHLTNESDGHTTSLYGIGFGPFIITNKHLFRRNNGTLVVQSLHGVFKVKDTTTLQQHLVDGRDMIIIRMPKDFPPFPQKLKFREPQREERICLVTTNFQTKSMSSMVSDTSCTFPSGDGIFWKHWIQTKDGQCGSPLVSTRDGFIVGIHSASNFTNTNNYFTSVPKNFMELLTNQEAQQWVSGWRLNADSVLWGGHKVFMVKPEEPFQPVKEATQL

Variants of: B1
Experiment: raw area under fraction-flipped curve 0-4 h after induction (AUC4h, not background-subtracted), DNA-recorder readout of cleavage of the substrate (dimensionless); higher = more cleavage of the substrate by the protease variant
Conditions: temperature: 34 °C; time window: 0-4 h after rhamnose induction
Protocol: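 In vivo DNA recorder in E. coli TOP10(DE3) ΔrhaA at 34 °C. Each TEVp single-site mutant (parent TEVp 0) is paired with a single-site variant of the 7-mer TEVs (canonical ENLYFQ|S). The substrate sits between flexible linkers in a Bxb1-sfGFP-TEVs-SsrA fusion, so cleavage stabilises Bxb1 and speeds flipping of a recombination array, read by NGS. The value is the raw area under the fraction-flipped curve over 0-4 h after rhamnose induction (AUC4h), with ≥20 reads per time point. It is not background-subtracted; inactive controls average about 0.047.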
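Note: Bxb1 expression induced with 0.2% (w/v) L-rhamnose at OD600 near 0.5, cultures sampled hourly, flipped fraction per protease–substrate barcode pair counted by paired-end Illumina sequencing.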

Variant	area with substrate DNLYFQS	area with substrate FNLYFQS	area with substrate KNLYFQS	area with substrate LNLYFQS	area with substrate PNLYFQS	area with substrate TNLYFQS	area with substrate WNLYFQS	area with substrate GNLYFQS	area with substrate HNLYFQS	area with substrate INLYFQS	area with substrate SNLYFQS	area with substrate VNLYFQS	area with substrate YNLYFQS	area with substrate MNLYFQS	area with substrate RNLYFQS	area with substrate NNLYFQS	area with substrate QNLYFQS
MGESLFKGPRDYNPISSSICHLTNESDGHTTSLYGIGFGPFIITNKHLFRRNNGTLVVQSLHGVFKVKDTTTLQQHLVDGRDMMIIRMPKDFPPFPQKLKFREPQREERICLVTTNFQTKSMSSMVSDTSCTFPSGDGIFWKHWIQTKDGQCGSPLVSTRDGFIVGIHSASNFTNTNNYFTSVPKNFMELLTNQEAQQWVSGWRLNADSVLWGGHKVFMVKPEEPFQPVKEATQL [I84M]	0.088	0.0612	0.0359	0.0627	0.0704	0.0628	0.065										
MGESLFKGPRDYNPISSSICHLTNESDGHTTSLYGIGFGPFIITNKHLFRRNNGTLVVQSLHGVFKVKDTTTLQQHLVDGRDMIQIRMPKDFPPFPQKLKFREPQREERICLVTTNFQTKSMSSMVSDTSCTFPSGDGIFWKHWIQTKDGQCGSPLVSTRDGFIVGIHSASNFTNTNNYFTSVPKNFMELLTNQEAQQWVSGWRLNADSVLWGGHKVFMVKPEEPFQPVKEATQL [I85Q]	0.0635	0.0495		0.0472	0.0406	0.054	0.0257	0.0476	0.0407	0.0389	0.0523	0.057	0.0406				
MGESLFKGPRDYNPISSSICHLTNESDGHTTSLYGIGFGPFIITNKHLFRRNNGTLVVQSLHGVFKVKDTTTLQQHLVDGRDMISIRMPKDFPPFPQKLKFREPQREERICLVTTNFQTKSMSSMVSDTSCTFPSGDGIFWKHWIQTKDGQCGSPLVSTRDGFIVGIHSASNFTNTNNYFTSVPKNFMELLTNQEAQQWVSGWRLNADSVLWGGHKVFMVKPEEPFQPVKEATQL [I85S]	0.0537	0.0589	0.0426	0.0472			0.0594	0.0592	0.0627		0.0696		0.0609	0.0507			
MGESLFKGPRDYNPISSSICHLTNESDGHTTSLYGIGFGPFIITNKHLFRRNNGTLVVQSLHGVFKVKDTTTLQQHLVDGRDMIIPRMPKDFPPFPQKLKFREPQREERICLVTTNFQTKSMSSMVSDTSCTFPSGDGIFWKHWIQTKDGQCGSPLVSTRDGFIVGIHSASNFTNTNNYFTSVPKNFMELLTNQEAQQWVSGWRLNADSVLWGGHKVFMVKPEEPFQPVKEATQL [I86P]	0.0534			0.0452	0.0345		0.0409				0.0428		0.0336		0.0417		
MGESLFKGPRDYNPISSSICHLTNESDGHTTSLYGIGFGPFIITNKHLFRRNNGTLVVQSLHGVFKVKDTTTLQQHLVDGRDMIIMRMPKDFPPFPQKLKFREPQREERICLVTTNFQTKSMSSMVSDTSCTFPSGDGIFWKHWIQTKDGQCGSPLVSTRDGFIVGIHSASNFTNTNNYFTSVPKNFMELLTNQEAQQWVSGWRLNADSVLWGGHKVFMVKPEEPFQPVKEATQL [I86M]	0.0793	0.063	0.0647	0.0507	0.0603		0.0575		0.0821	0.097		0.0735		0.0615	0.044	0.0627	0.0566
MGESLFKGPRDYNPISSSICHLTNESDGHTTSLYGIGFGPFIITNKHLFRRNNGTLVVQSLHGVFKVKDTTTLQQHLVCGRDMIIIRMPKDFPPFPQKLKFREPQREERICLVTTNFQTKSMSSMVSDTSCTFPSGDGIFWKHWIQTKDGQCGSPLVSTRDGFIVGIHSASNFTNTNNYFTSVPKNFMELLTNQEAQQWVSGWRLNADSVLWGGHKVFMVKPEEPFQPVKEATQL [D79C]	0.0372	0.0573	0.0735	0.0765	0.0677			0.0656	0.0556			0.0515					
MGESLFKGPRDYNPISSSICHLTNESDGHTTSLYGIGFGPFIITNKHLFRRNNGTLVVQSLHGVFKVKDTTTLQQYLVDGRDMIIIRMPKDFPPFPQKLKFREPQREERICLVTTNFQTKSMSSMVSDTSCTFPSGDGIFWKHWIQTKDGQCGSPLVSTRDGFIVGIHSASNFTNTNNYFTSVPKNFMELLTNQEAQQWVSGWRLNADSVLWGGHKVFMVKPEEPFQPVKEATQL [H76Y]	0.0454		0.0704	0.0626	0.0722	0.0646	0.0575		0.0401		0.0537	0.0724	0.0656		0.0646		
MGESLFKGPRDYNPISSSICHLTNESDGHTTSLYGIGFGPFIITNKHLFRRNNGTLVVQSLHGVFKVKDTTTLQQHLVDGRDMIIIRMKKDFPPFPQKLKFREPQREERICLVTTNFQTKSMSSMVSDTSCTFPSGDGIFWKHWIQTKDGQCGSPLVSTRDGFIVGIHSASNFTNTNNYFTSVPKNFMELLTNQEAQQWVSGWRLNADSVLWGGHKVFMVKPEEPFQPVKEATQL [P89K]	0.0804	0.0555	0.0567		0.0629		0.0396		0.074					0.0577			
MGESLFKGPRDYNPISSSICHLTNESDGHTTSLYGIGFGPFIITNKHLFRRNNGTLVVQSLHGVFKVKDTTTLQQHLVDGRDMIIIRMRKDFPPFPQKLKFREPQREERICLVTTNFQTKSMSSMVSDTSCTFPSGDGIFWKHWIQTKDGQCGSPLVSTRDGFIVGIHSASNFTNTNNYFTSVPKNFMELLTNQEAQQWVSGWRLNADSVLWGGHKVFMVKPEEPFQPVKEATQL [P89R]	0.0967	0.0531	0.0657			0.0606	0.0487	0.0544	0.0635		0.0581	0.0667		0.0564	0.0562	0.0676	
MGESLFKGPRDYNPISSSICHLTNESDGHTTSLYGIGFGPFIITNKHLFRRNNGTLVVQSLHGVFKVKDTTTLQQHLVDGRDMIIIRMIKDFPPFPQKLKFREPQREERICLVTTNFQTKSMSSMVSDTSCTFPSGDGIFWKHWIQTKDGQCGSPLVSTRDGFIVGIHSASNFTNTNNYFTSVPKNFMELLTNQEAQQWVSGWRLNADSVLWGGHKVFMVKPEEPFQPVKEATQL [P89I]	0.0568		0.0351		0.0485	0.0483	0.0157		0.042		0.0463			0.0591		0.0442	
MGESLFKGPRDYNPISSSICHLTNESDGHTTSLYGIGFGPFIITNKHLFRRNNGTLVVQSLHGVFKVKDTTTLQQHLVDGRDMIIIRMTKDFPPFPQKLKFREPQREERICLVTTNFQTKSMSSMVSDTSCTFPSGDGIFWKHWIQTKDGQCGSPLVSTRDGFIVGIHSASNFTNTNNYFTSVPKNFMELLTNQEAQQWVSGWRLNADSVLWGGHKVFMVKPEEPFQPVKEATQL [P89T]	0.0736		0.0382		0.0833		0.0537	0.0564	0.0683	0.0737	0.0662	0.0843	0.0532			0.0578	
MGESLFKGPRDYNPISSSICHLTNESDGHTTSLYGIGFGPFIITNKHLFRRNNGTLVVQSLHGVFKVKDTTTLQQHLVDGRDMIIIMMPKDFPPFPQKLKFREPQREERICLVTTNFQTKSMSSMVSDTSCTFPSGDGIFWKHWIQTKDGQCGSPLVSTRDGFIVGIHSASNFTNTNNYFTSVPKNFMELLTNQEAQQWVSGWRLNADSVLWGGHKVFMVKPEEPFQPVKEATQL [R87M]	0.0783	0.0727	0.0623	0.0616	0.0624	0.0725	0.0582		0.0796				0.0472			0.0736	
MGESLFKGPRDYNPISSSICHLTNESDGHTTSLYGIGFGPFIITNKHLFRRNNGTLVVQSLHGVFKVKDTTTLQQHLVDGRDMIIIRMPDDFPPFPQKLKFREPQREERICLVTTNFQTKSMSSMVSDTSCTFPSGDGIFWKHWIQTKDGQCGSPLVSTRDGFIVGIHSASNFTNTNNYFTSVPKNFMELLTNQEAQQWVSGWRLNADSVLWGGHKVFMVKPEEPFQPVKEATQL [K90D]	0.0726		0.0931	0.0687			0.0773		0.0734	0.0582		0.0535	0.0656				
MGESLFKGPRDYNPISSSICHLTNESDGHTTSLYGIGFGPFIITNKHLFRRNNGTLVVQSLHGVFKVKDTTTLQQHLVDGRDHIIIRMPKDFPPFPQKLKFREPQREERICLVTTNFQTKSMSSMVSDTSCTFPSGDGIFWKHWIQTKDGQCGSPLVSTRDGFIVGIHSASNFTNTNNYFTSVPKNFMELLTNQEAQQWVSGWRLNADSVLWGGHKVFMVKPEEPFQPVKEATQL [M83H]	0.0579		0.059	0.0312	0.0603	0.0523	0.0554		0.0636	0.0434	0.052	0.0498	0.0485	0.0594	0.0599		
MGESLFKGPRDYNPISSSICHLTNESDGHTTSLYGIGFGPFIITNKHLFRRNNGTLVVQSLHGVFKVKDTTTLQQHLVDGRDNIIIRMPKDFPPFPQKLKFREPQREERICLVTTNFQTKSMSSMVSDTSCTFPSGDGIFWKHWIQTKDGQCGSPLVSTRDGFIVGIHSASNFTNTNNYFTSVPKNFMELLTNQEAQQWVSGWRLNADSVLWGGHKVFMVKPEEPFQPVKEATQL [M83N]	0.0548			0.0583	0.0848	0.0789	0.0512		0.0496		0.0458			0.0376		0.0622	0.0627
MGESLFKGPRDYNPISSSICHLTNESDGHTTSLYGIGFGPFIITNKHLFRRNNGTLVVQSLHGVFKVKDTTTLQLHLVDGRDMIIIRMPKDFPPFPQKLKFREPQREERICLVTTNFQTKSMSSMVSDTSCTFPSGDGIFWKHWIQTKDGQCGSPLVSTRDGFIVGIHSASNFTNTNNYFTSVPKNFMELLTNQEAQQWVSGWRLNADSVLWGGHKVFMVKPEEPFQPVKEATQL [Q75L]	0.11						0.0504		0.0726							0.103	
MGESLFKGPRDYNPISSSICHLTNESDGHTTSLYGIGFGPFIITNKHLFRRNNGTLVVQSLHGVFKVKDTTTLQQHLQDGRDMIIIRMPKDFPPFPQKLKFREPQREERICLVTTNFQTKSMSSMVSDTSCTFPSGDGIFWKHWIQTKDGQCGSPLVSTRDGFIVGIHSASNFTNTNNYFTSVPKNFMELLTNQEAQQWVSGWRLNADSVLWGGHKVFMVKPEEPFQPVKEATQL [V78Q]	0.0906			0.0621										0.0586			
MGESLFKGPRDYNPISSSICHLTNESDGHTTSLYGIGFGPFIITNKHLFRRNNGTLVVQSLHGVFKVKDTTTLQQHLHDGRDMIIIRMPKDFPPFPQKLKFREPQREERICLVTTNFQTKSMSSMVSDTSCTFPSGDGIFWKHWIQTKDGQCGSPLVSTRDGFIVGIHSASNFTNTNNYFTSVPKNFMELLTNQEAQQWVSGWRLNADSVLWGGHKVFMVKPEEPFQPVKEATQL [V78H]	0.0677		0.062	0.0535	0.0452	0.0523	0.0713		0.0667	0.0809				0.0594			
MGESLFKGPRDYNPISSSICHLTNESDGHTTSLYGIGFGPFIITNKHLFRRNNGTLVVQSLHGVFKVKDTTTLQQHLVDGRTMIIIRMPKDFPPFPQKLKFREPQREERICLVTTNFQTKSMSSMVSDTSCTFPSGDGIFWKHWIQTKDGQCGSPLVSTRDGFIVGIHSASNFTNTNNYFTSVPKNFMELLTNQEAQQWVSGWRLNADSVLWGGHKVFMVKPEEPFQPVKEATQL [D82T]	0.0506	0.0551	0.0708	0.0441		0.0584	0.0975	0.0536	0.0622	0.0505		0.0675	0.0613	0.0539		0.0465	
MGESLFKGPRDYNPISSSICHLTNESDGHTTSLYGIGFGPFIITNKHLFRRNNGTLVVQSLHGVFKVKDTTTLQQHLVDGRCMIIIRMPKDFPPFPQKLKFREPQREERICLVTTNFQTKSMSSMVSDTSCTFPSGDGIFWKHWIQTKDGQCGSPLVSTRDGFIVGIHSASNFTNTNNYFTSVPKNFMELLTNQEAQQWVSGWRLNADSVLWGGHKVFMVKPEEPFQPVKEATQL [D82C]	0.0563		0.0606		0.0622	0.0647	0.041	0.0237	0.0542				0.0497				
